The values that follow come from article PMC6212790.

Some of the results follow. At the low end of the ranking the order means little.

The target of this test is T1, GST-Rok-C97-191 (UniProt O34857).
T1 sequence: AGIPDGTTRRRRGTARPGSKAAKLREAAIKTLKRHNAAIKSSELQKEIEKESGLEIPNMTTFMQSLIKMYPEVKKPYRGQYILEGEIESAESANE
Kind of test: protein binding microarray.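 Further: rank score from −0.5 (least bound) to 0.5 (best bound).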 The conditions noted are these: Rok is a gene silencer of Bacillus subtilis; high values mean tight binding; most listed sequences are background and not binding sites; double strand, one strand shown.
TATAAAAA showed a binding signal of 0.244 E-score.
GGCCGCCA came in with a binding signal of -0.303 E-score.
The figure for AGTCTATG is -0.158 E-score; for GCTAGTCC it is -0.0508 E-score; for AAAACATT it is 0.00221 E-score.
The figure for CTGTCGGC is -0.0494 E-score; for GAAAGCTC it is -0.157 E-score; for AGAGGACT it is -0.122 E-score.
TCGTGGAA yielded a binding signal of -0.0535 E-score.
Next, CGGGCTAC: -0.0334 E-score.
Next, GCTCGCGA: -0.171 E-score.
Sequence AGCGTGTA gave a binding signal of 0.0551 E-score.
The figure for AAGGGTTA is -0.0955 E-score.
The figure for AAATTTAA is 0.299 E-score.
Regarding TAAGGATA, the binding signal was 0.0194 E-score.
The figure for AGCGGCTG is -0.0881 E-score.
The figure for CCTCTGCC is -0.276 E-score; for AGGTTGAG it is 0.054 E-score.
Next, AGCACGGC: -0.202 E-score.
For the sequence GATTCAAA, the binding signal was -0.00653 E-score.
For GTTTTGTA, the binding signal worked out at 0.135 E-score.
Next, CTGCACGA: -0.102 E-score; TACTTTCA: 0.174 E-score.
The figure for GCTGAATA is 0.196 E-score; for AACTCAAT it is 0.0876 E-score; for ACCAGAGA it is 0.0737 E-score.
Next, CAAGTAAA: 0.272 E-score; GAGAATGA: 0.00699 E-score; AACCAATG: -0.227 E-score.
In turn, AAGTTGTC came in with a binding signal of 0.0086 E-score.
AACAGACA had a binding signal of 0.13 E-score.
The figure for ATGTTGAG is 0.086 E-score; for AACGTCTG it is -0.145 E-score; for TACTTGCA it is 0.167 E-score.
Next, AAATGGCA: -0.0482 E-score; ATTGTTCG: 0.062 E-score.
The figure for AGAATGGC is -0.0476 E-score; for ATGGTTGC it is -0.131 E-score; for GGCATTAC it is 0.00443 E-score.
GAGCTGTA yielded a binding signal of 0.0865 E-score.
Next, ATTTACTG: 0.319 E-score.
The figure for CTGAATCC is -0.0267 E-score; for ATGAGATC it is -0.0303 E-score; for ATCAGGAC it is -0.186 E-score.
The figure for ACATATAC is 0.302 E-score.
CCCGCTTA yielded a binding signal of -0.206 E-score.
CAATTCGA gave a binding signal of -0.104 E-score.
The figure for CCTTAAAG is -0.0637 E-score.
The figure for CCCCCACG is -0.281 E-score.
ACGTCACG had a binding signal of -0.0444 E-score.
The figure for ACTTCAGG is 0.0645 E-score.
In turn, ACAGGCGA yielded a binding signal of -0.176 E-score.
Next, GTTGCTTA: 0.137 E-score; CATCTTGC: -0.092 E-score; ACAGGCTC: -0.266 E-score.
With ACGCAAGG, the binding signal is -0.223 E-score.
The figure for GGTTTCAC is -0.212 E-score; for AACCAAGT it is -0.121 E-score.
The figure for ACAGTACT is 0.118 E-score; for AGCGGCCA it is -0.119 E-score; for AGGGTAAT it is 0.174 E-score.
The figure for ATCTGCCA is -0.000824 E-score.
TTGAAAAA registered a binding signal of 0.0858 E-score.
On to CAAGGCAA, for which the binding signal was -0.296 E-score.
The sequence GAACGCCA registered a binding signal of -0.0475 E-score.
Next, CAGATCTC: -0.12 E-score.
Next, AGAATAAA: 0.0986 E-score; GCTTCGGA: 0.0142 E-score.
The figure for CTACCGAC is 0.0745 E-score.
For the sequence GAAATAAC, the binding signal was 0.164 E-score.
As to GATTGGAC, the binding signal is -0.0622 E-score.
The sequence GAACGTCA showed a binding signal of -0.14 E-score.
The figure for ACACAGGC is -0.235 E-score; for CGTTGCGA it is -0.206 E-score; for AGTGAAGC it is -0.199 E-score.
The figure for CTATTCAG is 0.102 E-score; for GCAGACCC it is -0.261 E-score; for AACAATAC it is 0.238 E-score.
Next, AGCTCCGA: -0.023 E-score.
The sequence CGTGAGAG registered a binding signal of 0.015 E-score.
The figure for ATCCTATC is 0.16 E-score; for GTCACGTA it is 0.0715 E-score.
GCAGTGTA: the binding signal stood at 0.159 E-score.
For AAGTCGAT, the binding signal is -0.0475 E-score.
The sequence CCCTTGGC came in with a binding signal of -0.209 E-score.
The figure for AAACTTAT is 0.224 E-score.
Regarding ACGACCTG, the binding signal is -0.171 E-score.
Next, ACGAGTCG: -0.00473 E-score; AAGACCAG: -0.258 E-score.
Next, GCCGACAC: -0.137 E-score.
The figure for CACCTGAC is -0.093 E-score; for CCAACCCA it is 0.0477 E-score.
ACAACTTC registered a binding signal of 0.0473 E-score.
Next, ATCGACGA: 0.0426 E-score.
The figure for TATGCGCA is 0.136 E-score; for AACGAGGA it is -0.183 E-score; for GTGGCCAC it is -0.224 E-score.
The figure for GCCCGGAA is -0.202 E-score.
CTGCTGTC gave a binding signal of -0.104 E-score.
AACACATA registered a binding signal of 0.115 E-score.
Turning to ATGTTTAA, the binding signal worked out at 0.115 E-score.
The figure for GAAGTTGC is 0.0541 E-score; for GGACAACA it is -0.125 E-score.
The figure for ATAGTGCG is 0.187 E-score; for GCAAATAC it is 0.159 E-score.
Next, CTTAAAGC: -0.0585 E-score.
GAACTTGA yielded a binding signal of 0.101 E-score.
The figure for GGGACGTA is -0.0982 E-score; for CAAAGAAA it is 0.00518 E-score.
The figure for AGATTTGC is 0.0206 E-score; for CAACCTTC it is -0.0838 E-score.
Next, AGTCTTTG: -0.101 E-score; GCCGCAAA: -0.148 E-score; CACGTTCC: -0.146 E-score.
TCACTGGA registered a binding signal of -0.0749 E-score.
TGCAAGAA showed a binding signal of -0.116 E-score.
The figure for AGGGCTGA is -0.189 E-score; for GCGTGTCA it is -0.16 E-score.
AAACTGTA returned a binding signal of 0.148 E-score.
In the case of ACTTTTGA, the binding signal is 0.0573 E-score.
ACGCGTAA registered a binding signal of 0.123 E-score.
The figure for CACATAGG is 0.00513 E-score; for TACCATGA it is 0.241 E-score.
Next, CAACGAAC: -0.0949 E-score; CCGCGAAG: -0.0922 E-score; CCTGTGAC: -0.153 E-score.
Regarding ACATTTCG, the binding signal worked out at 0.246 E-score.
Next, GCTAAGCC: -0.256 E-score; ATTACGAA: 0.221 E-score.
The sequence CATTGTAA registered a binding signal of 0.111 E-score.
The figure for CTAGGAGA is 0.068 E-score.
Next, TGGAAGAA: -0.0659 E-score; ACAGGTCA: -0.0801 E-score.
The figure for ATGGATCA is -0.0277 E-score.
With CCCACTAC, the binding signal stood at 0.0131 E-score.
The figure for TGCGAGAA is -0.00388 E-score.
Next, AAACGCGC: -0.0739 E-score.
Next, CAGGTATA: 0.183 E-score; CCCAAGTC: -0.11 E-score.
GCAGGGCC showed a binding signal of -0.217 E-score.
Next, GTTATTGA: 0.0258 E-score; CCAAAGGA: -0.359 E-score; GCCACCCA: -0.15 E-score.
The figure for ACATAATA is 0.156 E-score.
For AGAGCACC, the binding signal is -0.00221 E-score.
In the case of GCGGTGAA, the binding signal was -0.061 E-score.
Sequence GCGTGAGA registered a binding signal of -0.00817 E-score.
Consider AAGTACGG, for which the binding signal worked out at 0.122 E-score.
Next, CCTGTATA: 0.157 E-score.
Next, AACTAGCG: 0.256 E-score; CAGCAACC: -0.128 E-score; AGTAATGA: 0.148 E-score.
Next, GCAGGAAA: -0.0289 E-score; CAACACTA: 0.276 E-score; AAGAGGTA: 0.181 E-score.
For the sequence CTCGCTCA, the binding signal was -0.0517 E-score.
Next, ACTAGAAT: 0.349 E-score.
Next, CGGCCCGC: -0.292 E-score; AGGATCCA: -0.127 E-score.
Next, GCTTCCCA: -0.244 E-score; AAATTAAA: 0.205 E-score.
On to ATGTGACC, for which the binding signal is -0.0111 E-score.
Next, ACCATCCG: -0.103 E-score; AGCCCGAT: -0.027 E-score; CCCGAGCA: 0.00679 E-score.
Sequence ACAAACTA came in with a binding signal of 0.382 E-score.
The figure for GACAAGAC is -0.266 E-score.
The figure for AAGGAGTC is -0.111 E-score; for ACTAATAC it is 0.248 E-score.
Next, GACCGGTC: -0.132 E-score.
Take CATACACG: the binding signal is -0.108 E-score.
The figure for GAACTTAC is -0.0918 E-score.
